# In publication PMC4336329 (PLoS ONE, 2015):
# The campaign covered roughly 310,000 compounds. About 14,000 (4.5%) showed an effect of 50% or more. Effects have a minus sign here. This is one part of the list.
# Target: human ether-à-go-go-related gene (hERG) potassium channel (human, UniProt Q12809)
# Experiment: primary screen, population patch clamp on CHO cells stably expressing hERG
# 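Also: peak tail current of the secondary pulse compared with the same well before compound.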
# Chain of human ether-à-go-go-related gene (hERG) potassium channel (Q12809 whole entry, looked up): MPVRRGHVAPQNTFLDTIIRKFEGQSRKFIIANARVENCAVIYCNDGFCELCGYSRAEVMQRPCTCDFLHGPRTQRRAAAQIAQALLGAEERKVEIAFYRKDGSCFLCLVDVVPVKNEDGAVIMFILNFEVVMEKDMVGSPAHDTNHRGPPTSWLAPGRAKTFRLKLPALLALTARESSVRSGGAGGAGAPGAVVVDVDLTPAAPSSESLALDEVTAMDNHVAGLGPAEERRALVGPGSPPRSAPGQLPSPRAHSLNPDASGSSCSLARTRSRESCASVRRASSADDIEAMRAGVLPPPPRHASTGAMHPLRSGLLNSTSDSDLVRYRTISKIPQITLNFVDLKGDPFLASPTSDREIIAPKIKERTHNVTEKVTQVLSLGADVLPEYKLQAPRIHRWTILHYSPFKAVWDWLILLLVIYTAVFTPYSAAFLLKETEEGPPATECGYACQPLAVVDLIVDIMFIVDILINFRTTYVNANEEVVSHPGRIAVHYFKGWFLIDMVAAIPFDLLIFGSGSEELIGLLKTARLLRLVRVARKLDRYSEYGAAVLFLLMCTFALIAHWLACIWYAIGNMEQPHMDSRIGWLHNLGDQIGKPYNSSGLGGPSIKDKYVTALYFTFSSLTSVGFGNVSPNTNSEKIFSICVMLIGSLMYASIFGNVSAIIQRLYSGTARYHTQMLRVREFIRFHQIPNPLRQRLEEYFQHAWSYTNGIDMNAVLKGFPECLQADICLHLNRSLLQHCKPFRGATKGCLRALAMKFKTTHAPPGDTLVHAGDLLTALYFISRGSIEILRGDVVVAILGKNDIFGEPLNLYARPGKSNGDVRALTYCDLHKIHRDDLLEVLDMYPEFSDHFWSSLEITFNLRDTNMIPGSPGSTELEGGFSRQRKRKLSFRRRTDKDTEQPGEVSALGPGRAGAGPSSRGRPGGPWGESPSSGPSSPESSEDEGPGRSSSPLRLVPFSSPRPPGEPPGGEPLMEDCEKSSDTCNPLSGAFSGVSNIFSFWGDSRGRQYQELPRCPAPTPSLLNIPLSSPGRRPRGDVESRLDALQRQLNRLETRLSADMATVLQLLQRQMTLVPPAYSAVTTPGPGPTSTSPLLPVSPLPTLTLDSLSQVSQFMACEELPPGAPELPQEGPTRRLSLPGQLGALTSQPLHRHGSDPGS
row,Compound,"hERG current change (%, negative = inhibition) at 10uM"
1,CCCn1c(Cc2ccccc2)nnc1SC(C)C(=O)NC1CC1 (stereo not shown),2.02%
2,CC(C)[C@H](NC(=O)[C@H](Cc1ccccc1)n1c(=O)[nH]c2ccccc2c1=O)C(=O)N1CCC[C@H]1C(=O)O,10.1%
3,O=C(COC(=O)C1CC1)NCCNC(=O)COC(=O)C1CC1,11.1%
4,O=C(Nc1nnc(SCC(=O)N2CCCc3ccccc32)s1)c1cccc2ccccc12,6.65%
5,COc1ccc(-c2cc3c(=O)n(CC(=O)NCc4cccnc4)ncn3n2)cc1,-16.5%
6,Cc1cc(C)c(/C([O-])=C(/C(=S)Nc2ccc(SC(F)F)cc2)[n+]2ccccc2)cc1C,0.184%
7,O=[N+]([O-])c1cc(C(F)(F)F)cc([N+](=O)[O-])c1N1CCN(S(=O)(=O)c2ccccc2)CC1,-8.9%
8,CCCCn1c(C)cc(C)c(S(=O)(=O)c2ccccc2C)c1=O,6.88%
9,Cc1ccc2c(c1)c1c(n2C)C(=O)CCC1,11.8%
10,CN(C(=O)COc1ncnc2c1cnn2-c1ccccc1)C1CCCCC1,0.236%
11,CC(C)[C@@H]1COC(c2cccc(C3=N[C@H](C(C)C)CO3)n2)=N1,5.3%
12,CC(NC(=O)/C(=C\c1ccco1)NC(=O)c1ccccc1Br)C(=O)O (stereo not shown),11.6%
13,Cn1c(-c2cccc([N+](=O)[O-])c2)[n+](C)c2ccccc21.[Cl-],-48%
14,CCn1c2ccccc2c2cc(NC(=O)CCCN3C(=O)CCC3=O)ccc21,-3.97%
15,COc1cc2c(cc1OC)CN(C(=O)NS(=O)(=O)c1ccc(C)cc1)CC2,-1.8%
16,O=C1c2ccccc2C(O)(c2ccccc2)N1CCc1ccccc1 (stereo not shown),-19.3%
17,O=c1c(Cl)c(NCc2ccco2)cnn1C12CC3CC(CC(C3)C1)C2,-22.7%
18,CCOC(=O)N1CCN(C(=O)c2ccc(Cl)nc2)CC1,-19.9%
19,CN(Cc1ccccc1)C(=O)CSc1nnc(-c2ccco2)n1-c1ccccc1,-80.2%
20,Cc1ccc(-c2nc(SCC(=O)c3c(N)n(C)c(=O)n(C)c3=O)n[nH]2)cc1,4.55%
21,COc1ccc(NC(=O)CSc2n[nH]c(-c3ccccc3)n2)cc1S(N)(=O)=O,-4.78%
22,Cc1nc(SCC(=O)NCc2ccco2)c2oc3ccccc3c2n1,-11.8%

row,Compound,"hERG current change (%, negative = inhibition) at 10uM"
1,CCc1ccccc1N(C)S(=O)(=O)c1ccc2[nH]cc(C(=O)N3CCc4ccccc43)c(=O)c2c1,-18.2%
2,CC1C2Cn3c(nc4ccccc43)C1N(C)O2 (stereo not shown),12.9%
3,COc1ccccc1C(=O)NC(=S)Nc1ccc(S(=O)(=O)N2CCN(C)CC2)cc1,3.18%
4,Cc1sc2nnn(CC(=O)N3CCN(C(=O)c4ccco4)CC3)c(=O)c2c1C,-32.4%
5,OC(CN(c1ccccc1)c1ccccc1)Cn1cnc2ccccc21 (stereo not shown),-25.9%
6,CCN(CC)CC(=O)Nc1cccc(S(=O)(=O)N2CCCC2)c1,2.42%
7,COC(=O)CN1C(=S)N(c2ccc(OC)cc2)C(=O)/C1=C/c1ccc(N2CCOCC2)cc1,4.72%
8,CCc1nnc2c(NCCc3ccccc3)nc3ccccc3n12,8.04%
9,CCOc1ccccc1NC(=O)C1CCC(CNc2c(N3CCCCC3)c(=O)c2=O)CC1 (stereo not shown),7.02%
10,CCOC(=O)C1(Cc2cccc(OC)c2)CCN(Cc2cccc3cnccc23)CC1,-39.3%
11,COC(=O)C1=C(c2ccc(OC(F)(F)F)cc2)C[C@@H]2CC[C@H]1N2C(=O)NC1CC1,-10.9%
12,CC1CCN(C(=O)c2ccc(CNc3c(N4CCCC4)c(=O)c3=O)cc2)CC1,1.58%
13,C/C(Cc1ccccc1)=N\NC(=O)CNC(=O)c1ccccc1,11.7%
14,CC(C)C(NC(=O)OCc1ccccc1)C(=O)OCC(=O)N1CCCCC1 (stereo not shown),-7.36%
15,CCOc1ccc(S(=O)(=O)N2CCC(C(=O)NC3CCCCC3)CC2)cc1,18.3%
16,CCc1c(C)c(C#N)c2nc3ccccc3n2c1N1CCN(c2cc(C)ccn2)CC1,17.4%
17,COc1ccc(CC(=O)Nc2ccc(OC)nc2)cc1,7.08%
18,O=C1NC(=S)NC(=O)C12C(c1ccc(F)cc1)NC(=S)NC2c1ccc(F)cc1 (stereo not shown),-4.14%
19,O=C(CC12CC3CC(CC(C3)C1)C2)NC(=S)NCc1ccccc1,0.161%
20,Cc1ncc(CN2CCN(C(C)C)C(CCO)C2)s1 (stereo not shown),19%
21,O=C(C1=NN[C@@H]2C(=O)N(c3ccccc3C(F)(F)F)C(=O)[C@H]12)c1ccc2ccccc2n1,-19.7%
22,COc1ccccc1NC(=O)c1cc2c(=O)n(C)c3ccccc3c2n1C,1.19%

row,Compound,"hERG current change (%, negative = inhibition) at 10uM"
1,CC12CCC(C/C1=N\N=C1\NC(=O)/C(=C\c3ccc(Cl)cc3)S1)C2(C)C (stereo not shown),12.2%
2,CCOC(=O)NC(=O)CSc1nnnn1-c1ccc(Cl)cc1,-47.8%
3,Cl.O=C(O)C1=CCNCC1,17.6%
4,O=C(Nc1c2c(nn1-c1ccc(F)cc1)CS(=O)C2)c1ccco1 (stereo not shown),-21.4%
5,Cc1ccc(Cl)c(OCC(=O)Nc2cc(S(=O)(=O)N3CCOCC3)ccc2N2CCCC2)c1,-15.4%
6,CCc1ccc(-c2cc3c(=O)n(CC(=O)NCCCN4CCN(CC)CC4)nc(C)n3n2)cc1,-30%
7,Cc1cc(NC(=O)CCC(=O)N(c2ccccc2)C(C(=O)NC2CCCC2)c2ccc(F)cc2)no1 (stereo not shown),25.9%
8,Cc1cc(OC(=O)c2cccc(Cl)c2)c([N+](=O)[O-])c(=O)[nH]1,19.9%
9,CC(C)N1CCN(Cc2ccc(OC3CCCC3)cc2)CC1CCO (stereo not shown),-10.7%
10,CC(C)(CC(=O)O)CC(=O)N1CCCN(c2nc3ccc(Cl)cc3s2)CC1,10.2%
11,COc1ccc(-n2c(C)cc(C(=O)COC(=O)Cc3n[nH]c(=O)c4ccccc34)c2C)cc1,-7.36%
12,O=C1CN(C(=O)COc2c(F)c(F)cc(F)c2F)c2ccccc2N1,0.479%
13,CC(C)OC(=O)CSc1nnc(-c2cccnc2)n1N,4.9%
14,CCNC(=S)N/N=C/c1sccc1C,14.7%
15,COCCN(CCOC)C(=O)CSc1ccc(S(=O)(=O)N2CCN(C)CC2)cn1,0.802%
16,COc1cc(NC(=S)N2CCOCC2)c(OC)cc1Cl,18.9%
17,O=C(NCC(=O)N(c1ccccc1)C(C(=O)NC1CCCC1)c1ccncc1)c1ccco1 (stereo not shown),-6.21%
18,CCOC(=O)c1nn(-c2ccc(OCC)cc2)c2nc(-c3cccc(OC)c3)c(C#N)c(=O)n12,2.83%
19,CN(C(=O)CCc1nnc(-c2ccc(-c3ccccc3)cc2)o1)C1CCOCC1,-25.8%
20,CCN(CC)CCNC(=O)c1ccc(NC(=O)Cc2cccc3ccccc23)cc1,-24%
21,CCOc1ccc(NC(=O)CN(C)S(=O)(=O)c2cnc[nH]2)cc1,46%
22,O=C(NCCc1c[nH]c2ccccc12)/C(=C\c1cccnc1)NC(=O)c1cccs1,-17%

row,Compound,"hERG current change (%, negative = inhibition) at 10uM"
1,CN1CCC(N(C)c2nc(-c3ccccc3)nc3ccccc23)CC1,-70.4%
2,CCN(CC(=O)Nc1ccccc1C(F)(F)F)C(=O)c1cc(-c2ccccc2)nn1-c1ccccc1,3.79%
3,CCOC(=O)/C(C#N)=C\C1=C(N2CCCC2)CC(C)(C)OC1,-2.21%
4,CS(=O)(=O)N1N=C(c2ccco2)CC1c1ccc(Br)cc1 (stereo not shown),7.34%
5,Cc1ccc(OCc2ccc(C(=O)Nc3nc4ccccc4n3Cc3ccccc3)o2)c([N+](=O)[O-])c1,11.2%
6,Cc1ccccc1OCC(=O)Nc1ccc(S(=O)(=O)N2CCCC2)cc1,-3.76%
7,Cc1cc(C)nc(NS(=O)(=O)c2ccc(NC(=O)Nc3ccccc3F)cc2)n1,7.97%
8,CC(C)(CO)CNC1CCCN(C2Cc3ccccc3C2)C1 (stereo not shown),9.44%
9,COC(=O)[C@@H]1C[C@]2(Br)c3ccccc3N(S(=O)(=O)c3ccccc3)[C@@H]2N1C(=O)OC,-4.6%
10,CCOc1cc(NC(=S)NCC2CCCO2)c(OCC)cc1NC(=O)CC(C)C (stereo not shown),11%
11,CN(C)CCNC(=O)Cc1ccc([N+](=O)[O-])cc1,4.05%
12,CSC(=Nc1ccccc1)Nc1ccccc1,-15.8%
13,CC(=O)c1c(OCC(=O)O)ccc2c(C)cc(=O)oc12,-5.37%
14,O=C(Nc1nccs1)C1CCN(S(=O)(=O)c2ccc(F)cc2)CC1,2.1%
15,CCOC(=O)c1c(C)[nH]c(C)c1C(=O)COC(=O)c1ccc(S(=O)(=O)C(F)F)cc1,-40.2%
16,O=C(O)CCCC(=O)Nc1ccccc1-n1ccnc1,5.42%
17,CCC(C)(C)NC(=O)C(c1cccnc1)N(C(=O)c1csnn1)c1ccccc1 (stereo not shown),-22.7%
18,Cn1cc(C(=O)N/N=C/c2cccc([N+](=O)[O-])c2)c2ccccc21,14.7%
19,Cc1cc(=O)[nH]c(Nc2cccc(F)c2)n1,16.2%
